According to the antibiotic and cytotoxicity screens of Wong et al. (2023):
This is one part of the list.

Experiments:
HSkMC = human skeletal muscle cells; assay: cytotoxicity call (relative viability < 0.9); conditions: 10 µM
HepG2 = assay: cytotoxicity call (relative viability < 0.9); conditions: 10 µM
S. aureus RN4220 = assay: growth inhibition call (relative growth <= 0.2); conditions: 50 µM

Q: What does the source list for CO[C@H](C(=O)N(C)C[C@@H]1OCc2ccccc2-c2c(n(C)c3ccccc23)C(=O)N([C@@H](C)CO)C[C@@H]1C)c1ccccc1?
A: cytotoxicity call (HSkMC): inactive; cytotoxicity call (HepG2): inactive; growth inhibition call (S. aureus RN4220): inactive

Q: What does the source list for COCCN(Cc1ccc(OC)cc1)c1c(C)nc2ccc(C(=O)Nc3ccc(Cl)c(Cl)c3)cn12?
A: cytotoxicity call (HSkMC): inactive; cytotoxicity call (HepG2): inactive; growth inhibition call (S. aureus RN4220): inactive

Q: Which results are given for Cc1ccc(S(=O)(=O)Nc2cccc3c2O[C@@H](CN(C)C(=O)Nc2ccc(C(F)(F)F)cc2)[C@@H](C)CN([C@@H](C)CO)C3=O)cc1?
A: cytotoxicity call (HSkMC): inactive; cytotoxicity call (HepG2): inactive; growth inhibition call (S. aureus RN4220): inactive

Q: For CCCN(C)C[C@H]1OCCCC[C@H](C)Oc2ccc(NS(=O)(=O)c3ccc(Cl)cc3)cc2C(=O)N([C@H](C)CO)C[C@H]1C, which cytotoxicity call (HSkMC) is on record?
A: The cytotoxicity call was “inactive”.

Q: What about the cytotoxicity call (HepG2) of the same molecule?
A: Its cytotoxicity call is “inactive”.

Q: What about the growth inhibition call (S. aureus RN4220) of the same molecule?
A: Its growth inhibition call is “inactive”.

Q: Which results are given for C[C@@H]1CCCCO[C@H](CN(C)S(=O)(=O)c2ccc(F)cc2)[C@H](C)CN([C@H](C)CO)C(=O)c2cc(NS(=O)(=O)c3ccc(Cl)cc3)ccc2O1?
A: cytotoxicity call (HSkMC): inactive; cytotoxicity call (HepG2): inactive; growth inhibition call (S. aureus RN4220): inactive

Q: Which cytotoxicity call (HSkMC) does the source give for C[C@@H]1CN([C@@H](C)CO)C(=O)c2cccc(NC(=O)C3CCOCC3)c2O[C@@H]1CN(C)C(=O)NC1CCCCC1 here?
A: The cytotoxicity call was “inactive”.

Q: And the cytotoxicity call (HepG2)?
A: Its cytotoxicity call is “inactive”.

Q: And the growth inhibition call (S. aureus RN4220)?
A: The growth inhibition call was “inactive”.

Q: With C[C@@H]1CN([C@@H](C)CO)C(=O)c2cc(NC(=O)c3ccncc3)ccc2O[C@@H](C)CCCCO[C@@H]1CN(C)C(=O)Nc1ccc(C(F)(F)F)cc1 as the molecule, how does the cytotoxicity call (HSkMC) read?
A: Its cytotoxicity call is “inactive”.

Q: What about the cytotoxicity call (HepG2) of the same molecule?
A: Its cytotoxicity call is “inactive”.

Q: What about the growth inhibition call (S. aureus RN4220) of the same molecule?
A: Its growth inhibition call is “inactive”.

Q: For COc1ccc(S(=O)(=O)Nc2ccc3c(c2)C(=O)N([C@@H](C)CO)C[C@@H](C)[C@H](CN(C)Cc2ccc(Cl)c(Cl)c2)OCCCC[C@@H](C)O3)cc1, which cytotoxicity call (HSkMC) is on record?
A: Its cytotoxicity call is “active”.

Q: And the cytotoxicity call (HepG2)?
A: Its cytotoxicity call is “active”.

Q: What about the growth inhibition call (S. aureus RN4220) of the same molecule?
A: The growth inhibition call was “inactive”.
